# Test results published in the supplement of paper PMC12632987.
# In all, about 4,500 sequences were measured (“median log2 fold change of GCK-ALFA target abundance (FLAG IP / Myc IP barcode read proportion)”: median about 0.078, lowest 2% from about -0.6 on). This is one part of the list.
# B1: GBRAP_43_5752 (protein)
# chain: MEEIIEGAVDFATLAAEDPNISEEQKLKIAKDVFEIVADEGIKLPEELSKLTRALAKSLSLEQLKELLKHLKELAEKYPELKEDFEANAKIIEEAIKKKE
# B2: GBRAP_128_3406 (protein)
# chain: MNEEKVKEAKKLLDEILKSDKEEAKKLAKELEKLLLESDLETVKEVVEYVKEKADEFNEEQLAILMDAFHKVAKESDPEKAEAAVEAIGILGEKLYELEE
# B3: GBRAP_57_6457 (protein)
# chain: MSRLEKVEKHAEEARKALEEGAPVEEVLKEIRKMLELLDKETLLDIALILDPSTDMDLSKEELIEHIVEIAREAAETEGPERVRAIIDLIEGQAEMDAIE
# B4: GBRAP_128_3247 (protein)
# chain: GQEELLEKAKEIIDEIVEVDEEEARKLTEELLELSKELSPEAREKVAEYAEEKLEELTAEKLEVVADTIRERRGELDPETAALWAGVEIEALERAEELKE
# B5: GBRAP_11_2804 (protein)
# chain: EKEKLKELKKLLEEAAKLLEELLKKGVDDEELRKEIEKKLEEAAKLAKELGDKSIEKLVEIAKELLKKAKEDPENAEEYVKLAKATLRVAAGQVLLEIEE
# B6: GBRAP_160_4705 (protein)
# chain: SETAEELIKYVDEEFEKMKEEIKGESAEQRATIAEGAFGEIIMELSENPEASDELEDEVDKIGDELVATIKANPDLTDEEIEKLIDEAKEKIKEAIKKKL
# B7: GBRAP_52_6306 (protein)
# chain: SAARLRALAERALALMRAGDREGLRALFREIARTLSDEELLALARALAELAATLNEEEIDRFMEMLEIAEEVWEEEGVDPGVIAEALGIVVTALYAREQA
# B8: GBRAP_139_3693 (protein)
# chain: SEREEKLERARELTRRAVEEGRPALRELAEYLVSLSEEEQIAAAEEIAEVLLELPFDEAERLLEELIEILREEFGNEDLAEIVEAARNRALALIAVREEA
# B9: GBRAP_160_4494 (protein)
# chain: MEKLEEFKKEVEELIEEAKEAILEEDTDGKRGIARAYAGDIVQEALELGVVSEEEADELLELAEKGMEEIVAAKEKGPEAMEKAAKKLKEELFKFADKAA
# B10: GBRAP_160_4116 (protein)
# chain: KEELKEMLEDNAEDLEETIKIIEDLSPEEAGTLAIVTLGEILLDASEFGEELEEIEKLAEEAIEEIKKTAKEDPSKLKEVSKKKLEEIKEALEKKAKEVK
# B11: GBRAP_166_4885 (protein)
# chain: SKEEEIEKLLKEAKEYIEKIPSADEEEKQELVYEAAEALAKILELSPNDEEIHKKITELIKKLIEAVGDPTLVRGALGSNISMDEELIDKLEELLEEALK
# B12: GBRAP_39_5702 (protein)
# chain: EEEEEAERVFSYLEAVGAGYMYETGISLEEAVAEAKEIFKKKAEEHPELKELFEKLIEILETGDEETKIAVIGLAVLIKEGTPLEEIKEHMELLIKYFEK
# B13: GBRAP_166_4986 (protein)
# chain: MNEKIVKETKKKIDELFEKMKEANEEEKTELIIEIAEEIAKAKKKGISEEDLLELVRYALKKVKEAGESVKVAAGIIAEISEFDDEEIEKIDKIAEEVEA
# B14: GBRAP_139_3745 (protein)
# chain: SRTEAVRARVRELTARLEEDPEAAIAELVELLVSLDEELREAAARELGEELLAWPFDRAEAALDALIERLREEAGDEDGAEILEAERNRTLAQIAVREEA
# B15: GBRAP_74_6569 (protein)
# chain: SEELIEKIKEIAKNKSLKEFAEFILENIDKLDEETLLVAAKEFAEKIRKEKDTITEEELELAEEAAAALAEKAFQEDSSRETLEAVNRLIAEVVEAEKAL
# B16: GBRAP_11_2766 (protein)
# chain: KKEKLKEIAKLAEELAKLLEKILKEGVDNEELRKEAREKLEELKKLVEKYGDEAEKKLAEILEEELEKAEKDPENAEEYLKHALTTARVLAGQFLLKAEE
# B17: GBRAP_160_4007 (protein)
# chain: SEETEKLIKEIRELFEELKEEMEGLSPEERLTLARGTAGEIIQLALESPVVSDETEDKIAEILDEMIAELEANANAPLEVWKKIIEETEKKIEALLKESE
# B18: GBRAP_95_7075 (protein)
# chain: DEDLEELEILADTAIDLYDAGLKEQAARLMRAFIDEAEELGYKVKDKELAIRALEKFVELALEHFDLEEIEKALAIAKAIGAPQEIIDRLEKIAAEKKAR
# B19: GBRAP_177_5018 (protein)
# chain: MTLEELKAMLADPNVSLKEFAEALKEAAKNLSAEEVIELLAEGLQKKPLDEEGAKAAAELILEISRVHGISISEIIGYLIEHVEAEKVEKILEALAKLEE
# B20: GBRAP_160_4307 (protein)
# chain: MEELKKLKEEIKEIVEEAKKMLEGQSAEERKTIVKVTLGEILLLAFENPAISDELEDKIGEIADEAEEYLDENPDLSEEEIKELLEETAKKILELIDESE
# B21: GBRAP_52_5991 (protein)
# chain: MEEEAKEIAEKGLELMLAGKEEEAKALLEEAVKTKSEEFIKKVMEKLAEMAKKATPEEREAIVELAIMLEDIALEAGFDEAVADDGLARVAAAAYEALQA
# B22: GBRAP_26_5450 (protein)
# chain: LKEKLEEFREKLKELADELLDPETAALLKVEVDDIVALAELELEEANGDLEKMLEIVEEMVEDLKEALEDLGVPEEVKKKLMEKAEEEAEKIKKYLKEES
# B23: GBRAP_42_5732 (protein)
# chain: MTGVTLEIVVETREEAEKALAEAKEIVEEQLKKGDIVVIPEIAAPEEAKEIAEEMEELAEELRKKLDKISDWVVVAGPGEDIREAAEIAIDIAKEELEEE
# B24: GBRAP_125_3152 (protein)
# chain: SHDAAVAALAEIAARLGFDEGLVAEIAENAAAHSIKQTLYAIALAEDDERLADLVEQLSEAEVEAVVLEVAAWLAEHPDITPEELRARLLEVAEAALAAR
# B25: GBRAP_184_5230 (protein)
# chain: TVVNRSVEAETEEELIAKSEAVIAEAQAAGKEVNLHVIAKNVDLEGLRRVMAFLKAQKDAGKIKSATLVVEDELSEEELDELVALADEYGVRLVAALSEE
# B26: GBRAP_128_3228 (protein)
# chain: STEELKKKVRELLEKIKKADKEEAKKLAEELAKLIAESSVEEAEAMAEVVEELAPEMTEEQLDIMIEAFEEEARKLDSEVALELRDIAIIFGEELLEKME
# B27: GBRAP_57_6468 (protein)
# chain: MSPLEKVEKYVELAKKLIEEGAPKEEVLKEVRKALEELSHETLLDIALILDPSTSEDASREELIEHLLKLFEKALKEKGKEEAYKMLDLIEGEAEMEASE
# B28: GBRAP_52_5871 (protein)
# chain: ELEEAVKLLEEAVEAMKAGKEEEAKKLLKEIVETFSEETILAAVKRLAEKIKTKSLEEAEAFFETAELLADIMDEAGRDPNIASEIEAIAGAALYEVEKK
# B29: GBRAP_11_2630 (protein)
# chain: KKEALKKAAELAEKAIEKVEELLKKGVDDEELLKELEELLEKLKELVEKHADEALKTLVEVAEELWKEALENPERREEYLKLLLNALRILKAELEEKIEE
# Target: GABARAP, O95166
# Experiment: median log2 fold change of GCK-ALFA target abundance (FLAG IP / Myc IP barcode read proportion) (log2 ratio); each designed protein is fused to an ALFA-tag nanobody in HEK293 cells to bring the named protein to FLAG-tagged glucokinase (GCK); Myc marks an untargeted standard; higher = target protein stabilised (more abundant)
# Settings: target protein: 3xFLAG-MCP-GCK-ALFA reporter; HEK293 landing pad (RPLP)
# Method in brief: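 The readout is target abundance, the per-binder median log2 ratio of FLAG to Myc barcode read proportions. It came from HEK293 landing-pad cells carrying a recombined ALFA-nanobody-fused binder library, induced with 2 μg mL^−1 doxycycline and transfected with a plasmid for a FLAG-tagged target and a Myc-tagged standard. After 48 h, lysates were immunoprecipitated with anti-FLAG and anti-Myc, and circular RNA barcodes were reverse transcribed, amplified and sequenced. Each barcode needed a proportion of at least 10^−7 in both replicates and each binder at least 3 barcodes per replicate, a pseudocount of 10^−6 was added, and the replicates were pooled.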
# GABARAP, O95166, sequence (O95166 whole entry, the tested form may be a part): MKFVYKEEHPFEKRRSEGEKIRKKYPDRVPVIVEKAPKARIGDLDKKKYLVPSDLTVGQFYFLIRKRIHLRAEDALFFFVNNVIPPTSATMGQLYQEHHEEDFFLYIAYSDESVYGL
row,Binder,median log2 fold change
1,B1,0.108
2,B2,0.39
3,B3,-0.414
4,B4,0.147
5,B5,-0.597
6,B6,0.417
7,B7,-0.273
8,B8,0.299
9,B9,-0.0541
10,B10,-0.151
11,B11,0.141
12,B12,0.198
13,B13,0.481
14,B14,0.186
15,B15,-0.176
16,B16,0.0217
17,B17,0.00862
18,B18,0.0532
19,B19,0.218
20,B20,-0.414
21,B21,-0.0473
22,B22,-0.413
23,B23,0.0986
24,B24,0.0341
25,B25,0.116
26,B26,-0.241
27,B27,0.291
28,B28,-0.00368
29,B29,0.295
